Data taken from publication PMC6581563 (Journal of medicinal chemistry, 2019).

Columns and labels:
[1] = cited from earlier work
FAAH = assay: ABPP selectivity assay, FAAH; assay type: biochemical, rat; settings: concentration up to 10 μM
ABHD6 = assay: ABPP selectivity assay, ABHD6; assay type: biochemical, rat; settings: up to a concentration of 10 μM
ABHD12 = assay: ABPP selectivity assay, ABHD12; assay type: biochemical, rat; settings: up to a concentration of 10 μM
[2] = LogD by shake flask method; assay type: physicochemical; settings: n-octanol/PBS
rat brain MAGL [3] = biological target: T1, rat brain MAGL (Rattus norvegicus, UniProt Q8R431); assay: [3H]2-OG hydrolysis assay, cytosolic preparation from rat brain; assay type: biochemical; settings: for Potency towards MAGL at single concentration, hydrolysis of [3H]2-OG: 1 μM
T1 sequence (Q8R431 1-303): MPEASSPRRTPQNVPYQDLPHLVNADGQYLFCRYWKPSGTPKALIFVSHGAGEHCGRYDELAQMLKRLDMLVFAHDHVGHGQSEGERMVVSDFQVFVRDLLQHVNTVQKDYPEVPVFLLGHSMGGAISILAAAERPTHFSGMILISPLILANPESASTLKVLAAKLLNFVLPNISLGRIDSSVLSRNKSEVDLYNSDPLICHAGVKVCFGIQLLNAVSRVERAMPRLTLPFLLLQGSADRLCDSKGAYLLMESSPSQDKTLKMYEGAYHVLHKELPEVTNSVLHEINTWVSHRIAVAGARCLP

CB2 receptor = CB2 receptor (Homo sapiens, UniProt P34972); assay: CB2 agonist and antagonist assays; assay type: cell-based; settings: up to a concentration of 30 μM
UniProt P34972, sequence (P34972 whole entry): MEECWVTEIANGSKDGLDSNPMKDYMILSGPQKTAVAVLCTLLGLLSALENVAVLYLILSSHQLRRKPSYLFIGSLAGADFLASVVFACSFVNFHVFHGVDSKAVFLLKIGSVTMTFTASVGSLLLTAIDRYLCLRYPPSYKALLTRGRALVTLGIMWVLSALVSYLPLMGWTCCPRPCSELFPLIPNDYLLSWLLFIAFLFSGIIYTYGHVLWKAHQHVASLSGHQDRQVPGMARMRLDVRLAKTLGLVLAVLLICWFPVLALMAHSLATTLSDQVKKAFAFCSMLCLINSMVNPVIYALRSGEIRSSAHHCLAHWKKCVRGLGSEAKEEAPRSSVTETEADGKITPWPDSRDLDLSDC

CB1 receptor = CB1 receptor (Homo sapiens, UniProt P21554); assay: CB1 agonist and antagonist assays; assay type: cell-based; settings: up to a concentration of 30 μM
UniProt P21554, sequence (P21554 whole entry): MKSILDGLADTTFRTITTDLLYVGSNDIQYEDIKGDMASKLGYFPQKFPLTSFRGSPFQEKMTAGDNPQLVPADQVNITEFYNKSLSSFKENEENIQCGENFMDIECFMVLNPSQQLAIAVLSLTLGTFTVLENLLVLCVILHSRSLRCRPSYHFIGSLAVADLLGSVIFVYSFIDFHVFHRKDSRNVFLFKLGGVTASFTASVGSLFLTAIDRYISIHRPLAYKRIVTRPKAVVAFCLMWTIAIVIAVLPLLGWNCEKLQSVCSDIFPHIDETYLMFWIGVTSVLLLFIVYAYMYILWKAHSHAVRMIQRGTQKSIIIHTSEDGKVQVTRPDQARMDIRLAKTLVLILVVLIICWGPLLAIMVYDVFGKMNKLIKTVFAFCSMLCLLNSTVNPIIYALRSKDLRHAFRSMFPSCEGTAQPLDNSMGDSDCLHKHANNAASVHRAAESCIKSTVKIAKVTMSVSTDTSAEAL

rat brain MAGL [4] = biological target: T1, rat brain MAGL; assay: Activity-based protein profiling; assay type: biochemical; settings: 1 μM
[5] = Dynamic PET imaging in Sprague-Dawley rats; settings: for Brain uptake (BBB permeability) in rats: Sprague-Dawley rats, 90 min PET
MAGL [6] = biological target: T2, MAGL (Rattus norvegicus, UniProt Q8R431); assay: PET blocking study with KML29 pretreatment in rats; assay type: in vivo, Sprague-Dawley rats; settings: KML29 3 mg/kg
T2 sequence (Q8R431 1-303): T1 sequence (Q8R431 1-303)

[7] = Ex vivo whole body biodistribution in mice; settings: for Initial uptake in heart and lungs: at 1 min
[8] = Radiometabolite analysis by radioHPLC; settings: 30 min post-injection; for Fraction of parent in plasma: mouse plasma
MAGL [9] = biological target: T3, MAGL (Mus musculus, UniProt O35678); assay: Ex vivo blocking biodistribution with KML29 pretreatment; settings: pre-treatment with KML29 3 mg/kg
T3 sequence (O35678 1-303): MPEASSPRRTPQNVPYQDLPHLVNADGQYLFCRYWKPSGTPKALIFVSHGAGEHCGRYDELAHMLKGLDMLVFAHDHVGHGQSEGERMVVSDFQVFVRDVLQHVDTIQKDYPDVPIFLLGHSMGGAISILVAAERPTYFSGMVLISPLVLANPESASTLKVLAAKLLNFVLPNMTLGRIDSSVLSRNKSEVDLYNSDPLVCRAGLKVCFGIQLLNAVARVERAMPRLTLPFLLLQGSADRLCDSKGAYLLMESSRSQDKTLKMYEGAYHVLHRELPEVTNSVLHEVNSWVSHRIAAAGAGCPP

Pgp/Bcrp = assay: PET imaging in wild-type and Pgp/Bcrp knockout mice; settings: at 2.5 min for 49, at 11 min for 50
rat brain MAGL [10] = biological target: T1, rat brain MAGL; settings: 60 min preincubation phase; cited from earlier work

SMILES: CN(C)C(=O)n1nnc(Cc2ccc(-c3ccccc3)cc2)n1 [2,5-regioisomer of LY2183240]
- cLogP [1]: 4.03

SMILES: O=C(OC(C(F)(F)F)C(F)(F)F)N1CC(N2CCN(C(=O)c3nccs3)CC2)C1 [Compound 8, 1,1,1,3,3,3-hexafluoropropan-2-yl 3-(4-(thiazole-2-carbonyl)piperazin-1-yl)azetidine-1-carboxylate]
- Inhibition of FAAH in ABPP assay (FAAH): none of them showed significant inhibition
- Interactions with ABHD6 (ABHD6): no significant interactions
- Interactions with ABHD12 (ABHD12): no significant interactions
- logD [2]: 1.9 ± 0.38
- IC50 (rat brain MAGL [3]): 0.00088 ± 5e-05 µM
- Time-dependent inhibition of [3H]2-OG hydrolysis (rat brain MAGL [3]; three tested concentrations 0.3, 1 and 3 nM): preincubation-time-dependent inhibition
- Interactions with CB2 receptor (agonism/antagonism) (CB2 receptor): no significant interactions
- Interactions with CB1 receptor (agonism/antagonism) (CB1 receptor): no significant interactions

SMILES: O=C(c1nccs1)N1CCN(C2CN(C(=O)n3cncn3)C2)CC1 [Compound 10, (4-(1-(1H-1,2,4-triazole-1-carbonyl)azetidin-3-yl)piperazin-1-yl) (thiazol-2-yl) methanone]
- IC50 (rat brain MAGL [3]): 0.01 ± 0.0042 µM

SMILES: O=C(c1nccs1)N1CCN(C2CN(C(=O)n3nnc4ccccc43)C2)CC1 [Compound 11, (4-(1-(1H-benzo[d][1,2,3]triazole-1-carbonyl)azetidin-3-yl)piperazin-1-yl) (thiazol-2-yl)methanone]
- IC50 (rat brain MAGL [3]): 0.0871 ± 0.0124 µM

SMILES: COc1cc(C(=O)N2CC(N3CCN(C(=O)c4nccs4)CC3)C2)ccc1-c1ccc(Cl)c(C(F)(F)F)c1 [Compound 17, (4-(1-(4’-chloro-2-methoxy-3’-(trifluoromethyl)-[1,1’-biphenyl]-4-carbonyl)azetidin-3-yl)piperazin-1-yl)(thiazol-2-yl)methanone]
- Inhibition of FAAH in ABPP assay (FAAH): none of them showed significant inhibition
- Interactions with ABHD6 (ABHD6): no significant interactions
- Potency towards MAGL at single concentration, ABPP (rat brain MAGL [4]): most potent MAGL inhibitors
- Interactions with ABHD12 (ABHD12): no significant interactions
- logD [2]: 3.35 ± 0.5
- Potency towards MAGL at single concentration, hydrolysis of [3H]2-OG (rat brain MAGL [3]): most potent MAGL inhibitors
- Interactions with CB2 receptor (agonism/antagonism) (CB2 receptor): no significant interactions
- Interactions with CB1 receptor (agonism/antagonism) (CB1 receptor): no significant interactions

SMILES: O=C(c1ccc(N2CCC(F)C2)cc1)N1CC(N2CCN(C(=O)c3nccs3)CC2)C1 (stereo not shown) [Compound 37, (4-(1-(4-(3-fluoropyrrolidin-1-yl)benzoyl)azetidin-3-yl)piperazin-1-yl)(thiazol-2-yl)methanone]
- Inhibition of FAAH in ABPP assay (FAAH): none of them showed significant inhibition
- Interactions with ABHD6 (ABHD6): no significant interactions
- Potency towards MAGL at single concentration, ABPP (rat brain MAGL [4]): most potent MAGL inhibitors
- Interactions with ABHD12 (ABHD12): no significant interactions
- logD [2]: 2.7 ± 0.04
- Potency towards MAGL at single concentration, hydrolysis of [3H]2-OG (rat brain MAGL [3]): most potent MAGL inhibitors
- Preincubation time-dependence of inhibition of [3H]2-OG hydrolysis (rat brain MAGL [3]; 30, 100 and 300 nM): no preincubation time-dependent increase in observed inhibition
- Jump dilution: recovery of inhibition after 20-fold dilution (rat brain MAGL [3]; 60 min preincubation then 20-fold dilution, 0.5 μM [3H]2-OG): no recovery of inhibition
- Interactions with CB2 receptor (agonism/antagonism) (CB2 receptor): no significant interactions
- Interactions with CB1 receptor (agonism/antagonism) (CB1 receptor): no significant interactions

SMILES: O=C(c1ccc(N2CCC(F)CC2)cc1)N1CC(N2CCN(C(=O)c3nccs3)CC2)C1 [Compound 38, (4-(1-(4-(4-fluoropiperidin-1-yl)benzoyl)azetidin-3-yl)piperazin-1-yl)(thiazol-2-yl)methanone]
- Potency towards MAGL at single concentration, ABPP (rat brain MAGL [4]): most potent MAGL inhibitors
- Potency towards MAGL at single concentration, hydrolysis of [3H]2-OG (rat brain MAGL [3]): most potent MAGL inhibitors

SMILES: O=C(c1nccs1)N1CCN(C2CN([11C](=O)OC(C(F)(F)F)C(F)(F)F)C2)CC1 [Compound 48, 1,1,1,3,3,3-hexafluoropropan-2-yl 3-(4-(thiazole-2-carbonyl)piperazin-1-yl)azetidine-1-carboxylate-^11C]
- Maximum standard uptake value (SUV) in the whole brain ([5]; rat, at 3.5 min): 2.26 SUV
- Reduction of whole brain uptake after KML29 pretreatment, based on AUC (MAGL [6]): ~ 50%
- Radioactivity level in liver, adrenal glands, kidney and brown adipose tissue ([7]; 30 min after injection): > 5 % ID/g
- Fraction of remaining parent in brain homogenate ([8]; mouse brain homogenate): 96%

SMILES: [11CH3]Oc1cc(C(=O)N2CC(N3CCN(C(=O)c4nccs4)CC3)C2)ccc1-c1ccc(Cl)c(C(F)(F)F)c1 [Compound 49, (4-(1-(4’-chloro-2-(methoxy-^11C)-3’-(trifluoromethyl)-[1,1’-biphenyl]-4-carbonyl)azetidin-3-yl)piperazin-1-yl)(thiazol-2-yl)methano-ne]
- Brain uptake (BBB permeability) in rats [5]: ca. 0.4 SUV
- Blocking effect (decrease of uptake) in BAT (MAGL [9]): 63%
- Blocking effect (decrease of uptake) in adrenal glands (MAGL [9]): 13%
- Initial uptake in heart and lungs [7]: > 15 % ID/g
- SUV1 min / SUV60 min ratio in blood [7]: 5.1
- Brain uptake plateau in Pgp/Bcrp knockout mice (Pgp/Bcrp): 1.4 SUV
- Fraction of parent in plasma [8]: 62%

SMILES: O=C(c1ccc(N2CCC([18F])C2)cc1)N1CC(N2CCN(C(=O)c3nccs3)CC2)C1 (stereo not shown) [Compound 50, (4-(1-(4-(3-(fluoro-^18F)pyrrolidin-1-yl)benzoyl)azetidin-3-yl)piperazin-1-yl)(thiazol-2-yl)methanone]
- Brain uptake (BBB permeability) in rats [5]: ~0.3 SUV
- Blocking effect (decrease of uptake) in BAT (MAGL [9]): 88%
- Blocking effect (decrease of uptake) in adrenal glands (MAGL [9]): 80%
- Ratio of %ID/g 1 min/60 min in heart [7]: 6.34
- Ratio of %ID/g 1 min/60 min in lungs [7]: 10.38
- Initial uptake in heart and lungs [7]: > 15 % ID/g
- SUV1 min / SUV60 min ratio in blood [7]: 3.5
- Brain uptake plateau in Pgp/Bcrp knockout mice (Pgp/Bcrp): 1.0 SUV
- Fraction of parent in plasma [8]: 45%

SMILES: O=C(Oc1ccc([N+](=O)[O-])cc1)N1CCC(C(O)(c2ccc3c(c2)OCO3)c2ccc3c(c2)OCO3)CC1 [JZL184]
- Residual activity of rat cerebellar 2-OG hydrolysis (rat brain MAGL [10]): ~ 10%
